Reference: patent US6140368A, “Naphthols useful in antiviral methods” (The Regents of the University of California, priority 1998, dated 2000)

Assays:
Experiment in all cases: biochemical
[1] = molecular target: T1, Y188L mutant reverse transcriptase (Human immunodeficiency virus type 1 BH10, UniProt P03366, Y787L)
T1 construct: mature chain of Gag-Pol polyprotein

[2] = molecular target: T2, P236L mutant reverse transcriptase (Human immunodeficiency virus type 1 BH10, UniProt P03366, P835L)
T2 construct: mature RT cut from Gag-Pol polyprotein

[3] = molecular target: T3, M184V mutant reverse transcriptase (Human immunodeficiency virus type 1 BH10, UniProt P03366, M783V)
T3 construct: mature RT cut from Gag-Pol polyprotein

SMILES: O=C(Nc1ccc2c(O)cc(S(=O)(=O)O)cc2c1)Nc1ccc2c(O)cc(S(=O)(=O)O)cc2c1 [Compound 1, carbonyl-J]
- remaining activity at 10 µM ([1]; 10 μM): 23%
- remaining activity at 50 µM ([1]; 50 μM): 2%
- remaining activity at 10 µM ([2]; 10 μM): 35%
- remaining activity at 50 µM ([2]; 50 μM): 4%
- remaining activity at 10 µM ([3]; 10 μM): 42%
- remaining activity at 50 µM ([3]; 50 μM): 5%
